Laboratory results: PubChem BioAssay AID1159614 (National Center for Advancing Translational Sciences (NCATS), 2016)
In all, about 45,000 compounds went through this assay and about 65 (0.1%) were called active. The inconclusive results got no clear call from the source; some entries with a clear call stand among them for comparison. Calls follow the shape of the dose curve; as a rule, active = well fitted activation curve with a large enough effect; inconclusive = small, poorly fitted or top-dose-only effect; inactive = no such curve, though single readings can be large or run the other way. Where the call is inconclusive, the potency comes from a doubtful curve fit.

What follows are molecules tested against Galactocerebrosidase (Homo sapiens) (UniProt P54803) (assay: A Novel Cell-Based Assay to Identify Small Molecules for B -Galactocerebrosidase). Conditions: 145M-Twi-hGALC-G270D cells (Twitcher mouse brain line with human GALC G270D), HMU-beta-Gal fluorescence, 48 h; activation: at 57.5 µM (top of the series).
In short: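 Mutant human GALC (G270D), stably expressed in a Twitcher mouse brain cell line lacking endogenous GALC, is measured in live-treated cells via 6-hexadecanoylamino-4-methylumbelliferyl-β-galactoside hydrolysis (0.1 mM final, pH 5.2) with fluorescent detection.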
Also: nearly all actives have a fitted effect of over 65% in size.
For activation in this document: 0% is about no effect.
Potency is read from the fitted curve at half-maximal effect; tags tell the direction and shape of the fitted curve.

UniProt P54803, sequence (P54803 whole entry, looked up): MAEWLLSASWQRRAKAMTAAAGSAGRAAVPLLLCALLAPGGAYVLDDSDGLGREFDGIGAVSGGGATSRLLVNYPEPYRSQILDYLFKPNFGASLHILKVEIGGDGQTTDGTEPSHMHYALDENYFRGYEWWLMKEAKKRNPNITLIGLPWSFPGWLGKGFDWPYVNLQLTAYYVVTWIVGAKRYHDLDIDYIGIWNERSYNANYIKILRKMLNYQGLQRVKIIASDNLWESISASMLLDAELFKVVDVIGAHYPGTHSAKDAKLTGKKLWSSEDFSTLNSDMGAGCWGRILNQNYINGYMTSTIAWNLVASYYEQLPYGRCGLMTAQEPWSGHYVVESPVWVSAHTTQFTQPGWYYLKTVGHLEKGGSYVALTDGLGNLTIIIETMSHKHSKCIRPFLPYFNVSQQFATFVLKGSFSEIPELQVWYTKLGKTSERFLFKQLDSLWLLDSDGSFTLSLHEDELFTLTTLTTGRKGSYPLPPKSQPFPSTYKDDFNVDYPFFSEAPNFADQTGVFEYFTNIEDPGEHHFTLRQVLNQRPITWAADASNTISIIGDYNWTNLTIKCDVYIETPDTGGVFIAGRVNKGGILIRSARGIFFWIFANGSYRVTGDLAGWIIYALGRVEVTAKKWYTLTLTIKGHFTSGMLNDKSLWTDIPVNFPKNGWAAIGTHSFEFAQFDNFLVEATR

Row | Structure (SMILES) | activation | Potency
1 | COCCCNC(=O)c1c(NC(=O)c2cc(=O)c3ccccc3o2)sc2c1CCCC2 | inconclusive: 36.7% [activator] | 
2 | CCOc1ccc(NC(C)=O)cc1 |  | inactive
3 | O=C(COC(=O)c1cc(-c2cccs2)nc2ccccc12)c1ccc(Cl)cc1 |  | inactive
4 | Cc1ccc(/C=C(\C#N)c2nc(-c3cc4c(ccc5ccccc54)oc3=O)cs2)cc1 |  | inconclusive: 22.4 µM [activator, partial curve]
5 | CCOc1ccccc1NC(=O)Cn1c(=O)n(Cc2ccc(C(=O)NCCCOC)cc2)c(=O)c2ccccc21 |  | inconclusive: 1.58 µM [activator, full curve, poor fit]
6 | CCOc1ccc(CNC(=O)CCn2nc(C)c3c(C)n(-c4ccccc4)nc3c2=O)cc1 |  | inconclusive: 39.8 µM [activator, single point]
7 | COc1ccccc1NC(=O)C1=C(C)Nc2c(C(=O)Nc3ccc(F)cc3)cnn2C1c1ccc(Cl)cc1 (stereo not drawn) |  | inconclusive: 39.8 µM [activator, single point]
8 | CCOc1ccc(-c2oc3ccccc3c(=O)c2O)cc1OCC |  | inconclusive: 28.2 µM [activator, single point]
9 | O=C(C1CCC(CNS(=O)(=O)c2ccc(Br)s2)CC1)N1CCN(c2ccccc2)CC1 (stereo not drawn) |  | inactive
10 | O=C(Nc1cc(F)ccc1F)C1CCN(c2nc3ccccc3n3cccc23)CC1 |  | inactive
11 | Cc1ccccc1-c1nn2c(=O)cc(CN3CCN(C(=O)/C=C/c4ccccc4)CC3)nc2s1 |  | inconclusive: 15.8 µM [activator, partial curve]
12 | CN(C)CCNC(=O)c1ccc(-n2c(-c3ccccc3)cc3c2CCCCC3)cc1 |  | inconclusive: 39.8 µM [activator, partial curve, poor fit]
13 | CC(C)c1ccc(OCC(=O)Nc2cc(-c3ccccc3)no2)cc1 |  | inconclusive: 35.5 µM [activator, single point]
14 | COCc1cc(C)nc2sc3c(c12)NC(c1ccccc1C(=O)O)N(c1cccc(C(F)(F)F)c1)C3=O (stereo not drawn) |  | inconclusive: 7.94 µM [activator, partial curve, poor fit]
15 | O=C(Nc1ccc(OC(F)(F)F)cc1)c1cc2c(=O)n3ccccc3nc2s1 |  | inconclusive: 2.24 µM [activator, full curve]
16 | Cc1ccc(-n2cnc3cc(C(=O)NCCC4=CCCCC4)ccc32)c(C)c1 |  | inconclusive: 39.8 µM [activator, single point]
17 | CCOC(=O)CNC(=O)c1cc2c(=O)n3cccc(C)c3nc2n1C |  | inconclusive: 39.8 µM [activator, single point]
18 | CCOC(=O)c1c(S(=O)(=O)NCC(=O)NCc2ccccc2Cl)c(C)n(C)c1C |  | inconclusive: 1 µM [activator, partial curve]
19 | Cc1ccc(-c2nnn3c2nc(NC2CCC(C)CC2)c2ccccc23)cc1 (stereo not drawn) |  | inconclusive: 35.5 µM [activator, single point]
20 | CCc1ccc(NCc2cc3cc4c(cc3n(CC(=O)Nc3ccccc3Cl)c2=O)OCO4)cc1 |  | inconclusive: 20 µM [activator, single point]
21 | CCN1CCN(c2cc(C)c3cc(NC(=O)c4cccc(Cl)c4)ccc3n2)CC1 |  | inactive

Row | Structure (SMILES) | activation | Potency
22 | COc1cc(OC)cc(-c2nc3nc(C)c(CCC(=O)Nc4ccc(F)cc4F)c(C)n3n2)c1 |  | inconclusive: 0.178 µM [activator, full curve, poor fit]
23 | CCOc1ccc(/C=C/C(=O)Nc2sc3c(c2C(=O)OC)C(C(=O)OC)CC3)cc1 (stereo not drawn) |  | inactive
24 | CCCCn1cc(S(=O)(=O)c2ccc(OC)cc2)c(=O)c2cc(CC)ccc21 |  | inconclusive: 31.6 µM [activator, single point]
25 | O=C(Cn1c(=O)n(Cc2cccs2)c(=O)c2cccnc21)Nc1ccc(F)cc1 |  | inconclusive: 0.178 µM [activator, full curve, poor fit]
26 | Cc1cccc(N2CCN(C(=O)CN3C(=O)COc4ccc(S(=O)(=O)N5CCCCCC5)cc43)CC2)c1C |  | inconclusive: 0.178 µM [activator, full curve, poor fit]
27 | CCC(Cc1ccccc1)NC(=O)CN1C(=O)COc2ccc(S(=O)(=O)N3CCCCCC3)cc21 (stereo not drawn) |  | inconclusive: 1.41 µM [activator, single point]
28 | CCCN(CCC)CC(O)Cn1cc(/C=C/C(=O)c2ccc(OC)cc2)c2ccccc21 (stereo not drawn) |  | active: 28.2 µM
29 | Cc1cc(O)c2c(O)c3c(O)cccc3cc2c1 |  | inactive
30 | COc1ccccc1C(=O)Nc1c(C(=O)N2CCN(c3ccc(F)cc3)CC2)oc2ccccc12 |  | inconclusive: 39.8 µM [activator, single point]
31 | COc1cc(OC)c(NC(=O)n2ncc3cc(Cl)ccc32)cc1Cl |  | inconclusive: 39.8 µM [activator, single point]
32 | CC(=O)N1CCc2c(sc3c2c(=O)n(-c2cc(Cl)ccc2C)c(=O)n3C)C1 |  | inconclusive: 0.178 µM [activator, full curve, poor fit]
33 | CCOc1ccc(-c2nc(CSCC(=O)NCCc3ccccc3)c(C)o2)cc1 |  | inactive
34 | CC(=O)Nc1ccc(-n2c(CCC(=O)O)ccc2-c2ccc(Br)cc2)cc1 |  | inconclusive: 31.6 µM [activator, single point]
35 | COc1ccc(-c2c3c(=O)n(C)c(=O)n(C)c3c3c(-c4cccc(C)c4)nc4ccccc4n23)cc1 |  | inconclusive: 31.6 µM [activator, single point]
36 | O=C(c1ccco1)n1nc(-c2ccccc2)nc1NCc1ccc(F)cc1 |  | inconclusive: 35.5 µM [activator, single point]
37 | COCCCNC(=O)c1ccc(Cn2c(=O)c3ccccc3n(Cc3ccc(Cl)cc3)c2=O)cc1 |  | inactive
38 | Cc1ccc(CNC(=O)c2c(Nc3c(C)cccc3C)sc(C(=O)c3ccccc3)c2N)cc1 |  | inconclusive: 39.8 µM [activator, single point]
39 | O=C(NCCc1ccc(Cl)cc1)c1cc2c(s1)-c1ccccc1OC2 |  | inactive
40 | CCOc1ccc(NC(=O)c2c(NC(=O)c3ccccc3F)sc3c2CCC3)cc1 |  | inconclusive: 7.94 µM [activator, partial curve]
41 | CCSc1ccc(C(=O)Nc2ccc(-c3nc4ccc(C)cc4s3)cc2)cc1 |  | inconclusive: 1 µM [activator, full curve, poor fit]
42 | CN(C)CCN(Cc1ccco1)C(=O)c1oc2ccccc2c1NC(=O)c1cccc(F)c1 |  | inconclusive: 39.8 µM [activator, single point]

Row | Structure (SMILES) | activation | Potency
43 | CCOc1ccc(CCNC(=O)CCc2c(C)nc3c4c(C)cc(C)nc4nn3c2C)cc1 |  | inconclusive: 0.178 µM [activator, full curve, poor fit]
44 | O=C(CCSc1nc(-c2ccco2)cc(C(F)(F)F)n1)Nc1cccc(O)c1 |  | active: 22.4 µM
45 | COc1ccc(C2=CC(c3ccc(F)cc3)n3ncc(C(=O)Nc4ccc(C)cc4)c3N2)cc1 (stereo not drawn) |  | inconclusive: 39.8 µM [activator, single point]
46 | O=C(Nc1ccc(F)cc1)c1ccc(-n2cnnc2)cc1 |  | inconclusive: 44.7 µM [activator, partial curve]
47 | CCOC(=O)c1sc(NC(=O)c2nc(SCC)ncc2Cl)c(C(=O)OCC)c1C |  | inconclusive: 7.08 µM [activator, single point]
48 | O=C(NCC(c1ccc2c(c1)OCO2)N1CCOCC1)c1cccc(Cl)c1 (stereo not drawn) |  | inconclusive: 31.6 µM [activator, partial curve, poor fit]
49 | COc1ccc(C2C(C(N)=O)=C(C)Nc3nc(CCCO)nn32)cc1 (stereo not drawn) |  | inconclusive: 25.1 µM [activator, single point]
50 | Cc1c(-c2cccc(NC(=O)Cc3ccccc3)c2)nc2ncccn12 |  | inconclusive: 28.2 µM [activator, single point]
51 | COc1ccc(CNc2nc(-c3ccccc3)nn2C(=O)c2ccccc2OC)cc1 | inconclusive: 24.2% [activator] | 
52 | N#C/C(=C\c1ccccc1)c1nc(-c2cc3c(ccc4ccccc43)oc2=O)cs1 |  | inconclusive: 1.78 µM [activator, partial curve, poor fit]
53 | Cc1cc(=O)oc2c3c(ccc12)OCN(Cc1ccccc1Cl)C3 |  | inconclusive: 39.8 µM [activator, single point]
54 | COc1ccc(-c2nnc(C3CCN(C(=O)c4ccccc4F)CC3)o2)cc1 |  | inconclusive: 2.51 µM [activator, single point]
55 | CCn1c(C(=O)NCc2ccc(OC)cc2)cc2sc(Cl)cc21 |  | inconclusive: 39.8 µM [activator, single point]
56 | COc1cccc(Cn2c(CNS(=O)(=O)c3ccc(Cl)s3)nc3cccnc32)c1 |  | inactive
57 | O=S(=O)(c1ccccc1)n1nc(-c2ccc(Cl)cc2)nc1NCc1ccccc1 |  | inactive
58 | CC(C)(C)OC(=O)N1CCC(c2c(C(=O)NCc3ccccc3)cnn2-c2ccc(F)cc2)CC1 |  | inconclusive: 31.6 µM [activator, single point]
59 | CCCN(CCC)CC(O)Cn1cc(/C=C/C(=O)c2ccc(Br)cc2)c2ccccc21 (stereo not drawn) |  | inconclusive: 28.2 µM [activator, single point]
60 | O=S(=O)(c1ccccc1)c1nnn2c1nc(Nc1ccccc1)c1cc(Cl)ccc12 |  | inconclusive: 39.8 µM [activator, single point]
61 | Oc1ccc(O)cc1 |  | inactive
62 | COc1cccc(/C=C/c2nc(C#N)c(NCCN(C)C)o2)c1 |  | inconclusive: 35.5 µM [activator, single point]
63 | CCc1ccc(N2C(=O)CSC23C(=O)N(Cc2cccc(OC)c2)c2ccccc23)cc1 (stereo not drawn) |  | inactive
